Test results as given in patent publication USRE50631E1, “ROR1 antibody immunoconjugates” (VelosBio Inc., priority 2017, dated 2025).

How the values were obtained:
Bx-PC3 = assay: Cytotoxicity in vitro (CellTiter-Glo viability), Bx-PC3; type: cell-based, human; settings: Bx-PC3 (Pancreatic), 72 hours
Ramos = assay: Cytotoxicity in vitro (CellTiter-Glo viability), Ramos; type: cell-based, human; settings: Ramos (Burkitt's), 72 hours
Jeko-1 MCL xenograft = assay: Jeko-1 human MCL xenograft model (study 7); type: in vivo, mouse; settings: 1 mg/kg ADC-N, ADC-P, ADC-R; 5 mg/kg ADC-A, ADC-L, ADC-M, ADC-S, ADC-T; IV Q4D
Experimental: Jeko-1 (MCL) cells were engrafted subcutaneously into mice. When tumor size reached 100 mm^3, the mice were randomized into nine groups, 9 mice/group. The groups were vehicle control; 1 mg/kg ADC-N, ADC-P or ADC-R; or 5 mg/kg ADC-A, ADC-L, ADC-M, ADC-S, or ADC-T. The mice were dosed IV q4d.

ROR1 on MDA-MB-231 cells = target: T1, ROR1 on MDA-MB-231 cells (Homo sapiens, UniProt Q01973); assay: Binding to ROR1-positive MDA-MB-231 cells (flow cytometry receptor binding assay); settings: 20 minutes on ice, PE secondary antibody
T1 construct: the MDA-MB-231 cell line, from triple negative breast cancer, is an adherent cell line; host or cells: MDA-MB-231 (human triple negative breast cancer)
T1 sequence (Q01973 30-937): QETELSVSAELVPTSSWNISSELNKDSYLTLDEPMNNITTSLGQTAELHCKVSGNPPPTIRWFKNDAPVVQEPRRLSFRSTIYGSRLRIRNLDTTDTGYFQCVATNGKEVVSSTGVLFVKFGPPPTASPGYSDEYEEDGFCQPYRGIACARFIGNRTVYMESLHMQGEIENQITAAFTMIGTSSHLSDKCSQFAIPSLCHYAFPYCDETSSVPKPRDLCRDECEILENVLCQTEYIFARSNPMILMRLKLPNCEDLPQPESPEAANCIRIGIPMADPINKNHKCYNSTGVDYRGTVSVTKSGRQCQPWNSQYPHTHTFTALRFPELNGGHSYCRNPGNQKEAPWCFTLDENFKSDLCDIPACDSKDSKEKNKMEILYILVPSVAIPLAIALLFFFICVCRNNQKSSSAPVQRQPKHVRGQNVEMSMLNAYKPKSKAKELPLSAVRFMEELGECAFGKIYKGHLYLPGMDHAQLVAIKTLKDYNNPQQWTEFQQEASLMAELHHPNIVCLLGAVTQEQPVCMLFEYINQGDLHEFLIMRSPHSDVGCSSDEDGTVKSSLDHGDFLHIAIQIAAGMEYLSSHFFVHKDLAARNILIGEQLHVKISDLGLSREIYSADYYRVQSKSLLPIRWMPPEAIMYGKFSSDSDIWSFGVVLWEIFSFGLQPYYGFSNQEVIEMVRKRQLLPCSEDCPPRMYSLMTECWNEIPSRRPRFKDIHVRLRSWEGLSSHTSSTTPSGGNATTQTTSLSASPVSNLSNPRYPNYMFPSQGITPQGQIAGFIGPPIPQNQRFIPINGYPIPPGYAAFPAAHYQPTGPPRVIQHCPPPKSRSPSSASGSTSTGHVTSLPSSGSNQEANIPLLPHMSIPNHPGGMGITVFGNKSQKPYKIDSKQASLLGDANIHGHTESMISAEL
Experimental: The binding to tumor cells by antibodies Ab1 and 4A5, as well as ADC constructs derived from those antibodies (ADC-A and ADC-T), was evaluated. First, the binding of Ab1 to two ROR1-positive human tumor cell lines representing different cancer types was tested. The Jeko-1 cell line, from mantle cell lymphoma, is a suspension cell line, while the MDA-MB-231 cell line, from triple negative breast cancer, is an adherent cell line. The cell lines have different levels of ROR1 expression, with Jeko-1 cells displaying about 13507 cell surface copies and the MDA-MB-231 cells displaying about 21015 cell surface copies. The Jeko-1 (ATCC Cat. No. CRL-3006) and MDA-MB-231 (ATCC Cat. No. […]) cell lines were purchased from the American Type Culture Collection and were maintained according to the ATCC recommendations.
Jeko-1 cells (FIG. 2A) or MDA-MB-231 cells (FIG. 2B) were incubated with 0, 1, 10, 100, or 1000 ng/mL of Ab1 for 20 minutes on ice. After washing off unbound antibody, the cells were incubated with secondary anti-human IgG antibody labeled with phycoerythrin (PE) for an additional 20 minutes. The amount of PE fluorescence was measured using the BDFACS Verse analyzer and FlowJo V10 software. The PE signal for the highest concentration was used as the maximal binding signal to calculate the % maximal binding. EC50 was calculated using GraphPad Prism 7. […]

HCC1187 = assay: Cytotoxicity in vitro (CellTiter-Glo viability), HCC1187; settings: read-out: EC50 (nM), cytotoxicity in vitro; HCC1187 (TNBC), 96 hours (values marked *)
Experimental: ROR1 binding by these conjugates was tested in cell culture to define the potency of various linker-cytotoxic agent combinations. Three different types of cancer cell lines were tested: B-lymphoma cell-lines TMD-8, HBL-1, and DOHH2; triple negative breast cancer cell lines HCC1187, MDA-MB-468, Bt549; and ovarian cancer cell lines A2008, TOV112D, JHOM1, and SKOvr3.
Cells were cultured in log phase growth and distributed into 96-well plates. Each cell line was plated at a slightly different cell density, ranging from 5×10^3 to 50×10^4 cells/well. Cells in duplicate were incubated with 3-fold serial dilution of a particular immunoconjugate (10, 3.33, 1.11, 0.37, 0.12, 0.041, 0.014, and 0.0045 μM) for 72 hours at 37° C. and 5% CO2. After treatment, cells were incubated with an equal volume of CellTiter-Glo® reagent (Promega Inc.) for 15 minutes at room temperature and viability was determined by a luminometer. Curves and EC50 values were generated in GraphPad Prism using a sigmoidal dose response non-linear regression fit.
Cells were grown and distributed into 96-well plates as described in Example 5. […] After treatment, cell viability was determined as described in Example 5. Cell surface ROR1 expression was assessed by quantitative flow cytometry and ROR1 expression was characterized as MFI>30 or MFI<30 (MFI: mean fluorescent intensity).

Mec-vector = assay: Cytotoxicity in vitro (CellTiter-Glo viability), Mec-vector; settings: read-out: EC50 (nM), cytotoxicity in vitro; Mec-vector (CLL), 72 hours
ES2 = assay: Cytotoxicity in vitro (CellTiter-Glo viability), ES2; type: cell-based, human; settings: ES2 (Ovarian), 72 hours
H1975 = assay: Cytotoxicity in vitro (CellTiter-Glo viability), H1975; type: cell-based, human; settings: H1975 (NSCLC), 72 hours
MCF-7 = assay: Cytotoxicity in vitro (CellTiter-Glo viability), MCF-7; type: cell-based, human; settings: MCF-7 (ER+/PR+/HER2− Breast), 72 hours
[1] = system: RS9373 cells (patient-derived xenograft); assay: ROR1-positive Richter's syndrome PDX mouse model (chemotherapy-resistant); type: in vivo
Experimental: NSG mice were subcutaneously injected in both flank areas with RS9373 cells (patient-derived xenograft or PDX) in a cell suspension in matrigel. When palpable tumors were observed (at approximately 50 mm^3), the animals were randomized into three groups, 4 mice/group. The treatment groups were vehicle control, 2.5 mg/kg ADC-A IV q4d, and 5 mg/kg ADC-A IV q4d. The mice received 3 total treatments and tumors were harvested 24 hours after the last treatment. Mean tumor growth inhibition (TGI) was calculated utilizing the following formula: […]
With most tumor types, heterogenous ROR1 expression is observed at the intra-tumoral level.

A2780 = assay: Cytotoxicity in vitro (CellTiter-Glo viability), A2780; type: cell-based, human; settings: A2780 (Ovarian), 72 hours
L363 = assay: Cytotoxicity in vitro (CellTiter-Glo viability), L363; type: cell-based, human; settings: L363 (MM), 72 hours

B1: ADC-A: Ab1 conjugated via MAL (mc)-VC-PAB linker to MMAE (conjugate)
heavy: QVQLQESGPGLVKPSQTLSLTCTVSGYAFTAYNIHWVRQAPGQGLEWMGSFDPYDGGSSYNQKFKDRLTISKDTSKNQVVLTMTNMDPVDTATYYCARGWYYFDYWGHGTLVTVSS[skipping human IgG1 constant region]
light: DIVMTQTPLSLPVTPGEPASISCRASKSISKYLAWYQQKPGQAPRLLIYSGSTLQSGIPPRFSGSGYGTDFTLTINNIESEDAAYYFCQQHDESPYTFGEGTKVEIKRTVAAPSVFIFPPSDEQLKSGTASVVCLLNNFYPREAKVQWKVDNALQSGNSQESVTEQDSKDSTYSLSSTLTLSKADYEKHKVYACEVTHQGLSSPVTKSFNRGEC
- EC50 (Bx-PC3): 47.4 nM
- EC50 (Ramos): 650 nM
- tumor growth / average tumor size (interim results, day 14) (Jeko-1 MCL xenograft): Significant tumor regression
- EC50 of binding to cells (ROR1 on MDA-MB-231 cells): 48.5 ng/mL
- EC50 (HCC1187): 2.3 nM
- EC50 (Mec-vector): 558 nM
- EC50 (ES2): 170 nM
- EC50 (H1975): 9.7 nM
- EC50 (MCF-7): 289 nM
- mean TGI ([1]; 2.5 mg/kg IV q4d): 78% at 2.5 mg/kg;
- tumor response ([1]; 5 mg/kg ADC-A, 20-30% of intra-tumoral cells ROR1-positive): complete and sustained regressions were observed in all tumors; also recorded: complete and sustained tumor regressions were observed
- mean TGI ([1]; 5 mg/kg IV q4d): 90% at 5 mg/kg.
- EC50 (A2780): 64 nM
- EC50 (L363): 244 nM

“Also recorded” adds a separate entry of the source.
